Data from PMC9381947 (Antiviral Research, 2022).

Test system: influenza A virus (IAV) H1N1
Experiment: Antiviral assay in MDCK cells
Conditions: 48 h, qRT-PCR, listed as PUG

SMILES: O=C1O[C@@H]2[C@@H](OC(=O)c3cc(O)c(O)c(O)c3-c3c1cc(O)c(O)c3O)[C@H](O)O[C@@H]1COC(=O)c3cc(O)c(O)c(O)c3-c3c(O)c(O)c4oc(=O)c5c(c(O)c(O)c6oc(=O)c3c4c65)-c3c(cc(O)c(O)c3O)C(=O)O[C@@H]21 [Punicalagin, 2,3-hexahydroxydiphenoyl-gallagyl-D-glucose]
- antiviral effect against H1N1: did not show detectable antiviral effects
